# Source: paper PMC4336329 (PLoS ONE, 2015)
# Hit rate of the full screen: of about 310,000 compounds, about 2,200 (0.71%) showed an effect of 50% or more. Effects have a minus sign here. Some of the results follow.
# Target: human ether-à-go-go-related gene (hERG) potassium channel (human, UniProt Q12809)
# Assay: primary screen, population patch clamp on CHO cells stably expressing hERG
# Sequence of human ether-à-go-go-related gene (hERG) potassium channel (Q12809 whole entry, looked up): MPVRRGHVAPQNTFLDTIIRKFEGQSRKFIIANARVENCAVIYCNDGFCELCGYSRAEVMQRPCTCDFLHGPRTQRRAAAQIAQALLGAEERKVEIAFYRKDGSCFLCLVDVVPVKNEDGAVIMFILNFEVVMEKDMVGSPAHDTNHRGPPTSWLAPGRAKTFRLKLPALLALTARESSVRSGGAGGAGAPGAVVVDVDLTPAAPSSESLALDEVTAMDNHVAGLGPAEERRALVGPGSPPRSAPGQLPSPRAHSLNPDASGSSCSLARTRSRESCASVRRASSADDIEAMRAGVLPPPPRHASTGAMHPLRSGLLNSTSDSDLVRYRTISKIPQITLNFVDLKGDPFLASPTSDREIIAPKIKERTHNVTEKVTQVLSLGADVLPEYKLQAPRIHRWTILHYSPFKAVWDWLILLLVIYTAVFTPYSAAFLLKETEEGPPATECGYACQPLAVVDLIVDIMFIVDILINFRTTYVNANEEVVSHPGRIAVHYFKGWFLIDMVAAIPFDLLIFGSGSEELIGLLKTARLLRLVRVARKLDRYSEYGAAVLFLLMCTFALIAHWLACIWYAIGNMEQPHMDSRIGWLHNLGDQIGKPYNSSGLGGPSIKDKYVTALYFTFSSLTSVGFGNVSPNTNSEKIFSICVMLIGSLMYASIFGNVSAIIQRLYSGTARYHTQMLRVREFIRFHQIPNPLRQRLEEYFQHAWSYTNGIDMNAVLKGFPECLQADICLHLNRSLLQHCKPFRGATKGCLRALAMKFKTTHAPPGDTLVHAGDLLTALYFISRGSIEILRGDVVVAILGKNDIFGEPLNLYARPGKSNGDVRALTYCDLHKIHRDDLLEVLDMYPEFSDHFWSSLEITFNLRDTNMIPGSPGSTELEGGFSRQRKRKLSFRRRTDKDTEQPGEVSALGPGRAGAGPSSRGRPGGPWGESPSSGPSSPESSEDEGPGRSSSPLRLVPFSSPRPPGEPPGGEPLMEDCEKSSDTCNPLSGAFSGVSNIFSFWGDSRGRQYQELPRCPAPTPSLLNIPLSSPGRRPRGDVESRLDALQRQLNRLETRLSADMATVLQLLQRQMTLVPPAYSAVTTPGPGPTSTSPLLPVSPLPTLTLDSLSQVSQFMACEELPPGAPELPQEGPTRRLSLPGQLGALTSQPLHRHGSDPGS
row,Compound,"hERG current change (%, negative = inhibition) at 1uM [%]"
1,COc1ccc(C2SCC(=O)N2c2nc3ccccc3s2)cc1 (stereo not drawn),10.4
2,CN(CC(=O)NCc1ccc(F)cc1)Cc1ccc(Br)cc1,2.94
3,Cc1cc(C)c2[nH]c(=O)c(CN(CC3CCCO3)C(=S)Nc3ccccc3)cc2c1 (stereo not drawn),11.7
4,CCc1cccc(C)c1NC(=O)CSc1nc(C)c(C)o1,12.5
5,Cc1cccc(NC(=O)CCN2CCC(C(N)=O)CC2)c1,16.9
6,COc1ncccc1C(=O)N1CCCC(C(=O)c2cc(F)ccc2F)C1 (stereo not drawn),2.05
7,Cc1cccc(NC(=O)c2cccc(N3C(=O)CCC3=O)c2)c1,2.55
8,Cc1ccc2c(c1)CCCN2CC(=O)N(C)c1c(N)n(Cc2ccccc2)c(=O)[nH]c1=O,11.8
9,CN(Cc1ccccc1)C1=CC(=[N+]2CCCC2)CC(C)(C)C1.[I-],-7.19
10,Cc1ccc(-n2nnnc2-c2ccco2)cc1,7.04
11,COc1ccc(-c2ccc3c(c2)S(=O)(=O)c2cccc(C(=O)NC4CCCCC4)c2C3=O)cc1OC,11.4
12,COC(CNC(=O)C(=O)NCC1CCCN1S(=O)(=O)c1cccs1)OC (stereo not drawn),6.62
13,Cc1ccccc1C(=O)NCC(=O)OCC(=O)NC(C)C1CC2CCC1C2 (stereo not drawn),1.98
14,COCCNC(=O)CCc1nc(-c2ccccc2)no1,12.1
15,COc1ccc(-c2cc(-c3ccc(O)cc3)nc(N)c2C#N)cc1OC,-5.05
16,CC(OC(=O)Cn1[nH]c(=O)c2ccccc2c1=O)C(=O)Nc1cccc(Cl)c1 (stereo not drawn),-2.87
17,O=C(COc1ccc2ccc(=O)oc2c1)N1CCN(C(=O)C2COc3ccccc3O2)CC1 (stereo not drawn),0.566
18,O=C(NCCC1=CCCCC1)C1CCN(C(=O)c2ccc(Cl)cc2)CC1,4.87
19,O=C(/C=C/c1ccc(Cl)c(Cl)c1)Nc1cccnc1,10.5

row,Compound,"hERG current change (%, negative = inhibition) at 1uM [%]"
1,CNC(=S)SCCOc1ccccc1,1.62
2,COc1ccc(OC)c(S(=O)(=O)N2CCCC(C(=O)N3CCCCCC3)C2)c1 (stereo not drawn),-0.35
3,O=C(OCc1cccc([N+](=O)[O-])c1)c1ccc2ccccc2n1,8.72
4,Cc1ccccc1OCCCC(=O)Nc1ccccc1C(F)(F)F,2.3
5,Cc1[nH]c2ccc(F)cc2c1CCN(Cc1cccnc1)C(=S)Nc1cccc(F)c1,9.6
6,O=[N+]([O-])c1cc([N+](=O)[O-])c(Oc2ccc(F)cc2F)cc1NN1CCCCC1,9.35
7,C=CCn1c(SCC#N)nc2sc(CC)cc2c1=O,3.56
8,O=C(Nc1nc2ccc([N+](=O)[O-])cc2s1)c1ccc(S(=O)(=O)N2CCCc3ccccc32)cc1,-3.19
9,COc1ccc(OC)c(C(c2c(O)nc(SC)[nH]c2=O)c2c(O)nc(SC)[nH]c2=O)c1,14.8
10,CC(/C=C/C(=O)c1ccc(C)cc1)=C\c1ccccc1,12.5
11,O=C(c1ccccc1CCc1ccccc1)N1CCCC1,11.7
12,CCOC(=O)c1cc(-c2ccccc2)n(CCC(=O)O)c1C,8.58
13,COc1cc(OC)c(NC(=O)c2cccc(F)c2)cc1Cl,6.95
14,Cc1ccccc1N=C/C=C1\N(C)c2ccccc2C1(C)C,-51.2
15,Fc1ccc(C2CC(c3cccs3)=NN2C(=S)Nc2ccccc2)cc1 (stereo not drawn),14
16,NS(=O)(=O)c1ccc(NC(=O)/C=C/c2cccs2)cc1,10.2
17,COC(=O)C1=C(C)N(c2ccc(Br)cc2)C(=O)/C1=C\c1ccco1,10.3
18,COc1cccc(N2CCN(c3ncnc4c3[nH]c3ccccc34)CC2C)c1 (stereo not drawn),9.27
19,C=CCOc1ccccc1CNCc1cccnc1.Cl,21.8

row,Compound,"hERG current change (%, negative = inhibition) at 1uM [%]"
1,CCCCc1c(C)nc2c(OC)cccc2c1SCCC(=O)O,5.03
2,COc1ccc(OC(=O)c2ccc3nsnc3c2)cc1,-0.133
3,O=C(c1cccc(C(F)(F)F)c1)C1CCCN(C(=O)CN2CCCC2=O)C1 (stereo not drawn),5.23
4,CC(=O)c1ccccc1NC(=O)CN1C(=O)CS/C1=C\c1nc(-c2ccc(C)cc2)cs1,7.86
5,O=C(N1CCCCC1)C1(c2ccccc2)CCOCC1,19.8
6,CCOC(=O)/C=c1\s/c(=C\c2ccc3cc(OC)ccc3c2)c(=O)n1CC(=O)NCc1ccc2c(c1)OCO2,16.4
7,N#Cc1c(SCc2ccccc2)nc(N2CCOCC2)c2c1CCCC2,0.23
8,CCOc1ccccc1C(=O)NC(C(=O)Nc1cccnc1)C(C)C (stereo not drawn),13.3
9,CCCCOc1nc2ccccc2nc1C(C#N)S(=O)(=O)c1ccccc1 (stereo not drawn),5.93
10,COc1ccc(NC(=O)CCCNC(=O)c2ccc(Cl)cc2)c(OC)c1,7.1
11,COCCCC1CCN(C(=O)C2CCC(=O)N(C3CCCCCC3)C2)CC1 (stereo not drawn),6.29
12,O=C(NCCN1CCN(c2ccccc2F)CC1)C1CC(=O)N(C2CCCC2)C1 (stereo not drawn),7.61
13,COc1ccc(CN2CCC(CO)(Cc3ccccc3)CC2)cc1Cn1cccn1,-55.9
14,NC(=O)CC1NC(=O)c2ccccc21 (stereo not drawn),10
15,CS(=O)(=O)N1CCC(C(=O)Nc2ccccc2)CC1,3.99
16,CCCc1c(C(=O)N/N=C(\C)c2ccc(O)cc2)nnn1-c1nonc1N,8.78
17,CSc1ccc(S(=O)(=O)NCC(=O)OCC(=O)NC2(C#N)CCCCC2)cc1[N+](=O)[O-],17.3
18,O=C(COC(=O)c1cccnc1Nc1cccc(C(F)(F)F)c1)NCc1ccc2c(c1)OCO2,14.3
19,Br.CCOC(=O)CN1C2=NCCCN2c2ccccc21,7.99
